Measurements taken from PMC9911399, “Two distinct binding modes provide the RNA-binding protein RbFox with extraordinary sequence specificity”.
Substitutions are numbered along the chain they refer to; changes in the protein carry UniProt numbers. The list shows a part of the results.

T1: RBFOX1 RRM RbFoxmut (Fox-RRM*) (Homo sapiens, UniProt Q9NWB1 109-208, R118D;E147R;N151S;E152T)
T1 sequence: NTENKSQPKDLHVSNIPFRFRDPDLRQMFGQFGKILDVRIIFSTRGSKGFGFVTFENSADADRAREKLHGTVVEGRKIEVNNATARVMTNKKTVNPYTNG

B1: CACUGAU (DNA:RNA)
RNA: GGGAGACCGGAAUUCAGAUUGUCCCACUGAUUUAAAUCCCGUCGUAGCCACCA
DNA 1: CAATCTGAATTCCGGTCTCCC
DNA 2: TGGTGGCTACGACGGGATT
B2: ACAGACA (DNA:RNA)
RNA: GGGAGACCGGAAUUCAGAUUGUCCACAGACAUUAAAUCCCGUCGUAGCCACCA
DNA 1: CAATCTGAATTCCGGTCTCCC
DNA 2: TGGTGGCTACGACGGGATT
B3: AACAUAU (DNA:RNA)
RNA: B1 RNA with C25A, U28A, G29U
DNA 1: CAATCTGAATTCCGGTCTCCC
DNA 2: TGGTGGCTACGACGGGATT
B4: GACUCUA (DNA:RNA)
RNA: B1 RNA with C25G, G29C, A30U, U31A
DNA 1: CAATCTGAATTCCGGTCTCCC
DNA 2: TGGTGGCTACGACGGGATT
B5: AGACUGU (DNA:RNA)
RNA: B2 RNA with C26G, G28C, A29U, C30G, A31U
DNA 1: CAATCTGAATTCCGGTCTCCC
DNA 2: TGGTGGCTACGACGGGATT
B6: UUGCGCC (DNA:RNA)
RNA: B2 RNA with A25U, C26U, A27G, G28C, A29G, A31C
DNA 1: CAATCTGAATTCCGGTCTCCC
DNA 2: TGGTGGCTACGACGGGATT
B7: GUCUCAA (DNA:RNA)
RNA: B1 RNA with C25G, A26U, G29C, U31A
DNA 1: CAATCTGAATTCCGGTCTCCC
DNA 2: TGGTGGCTACGACGGGATT
B8: UCGUUAA (DNA:RNA)
RNA: B2 RNA with A25U, A27G, G28U, A29U, C30A
DNA 1: CAATCTGAATTCCGGTCTCCC
DNA 2: TGGTGGCTACGACGGGATT
B9: CCGGACG (DNA:RNA)
RNA: B2 RNA with A25C, A27G, A31G
DNA 1: CAATCTGAATTCCGGTCTCCC
DNA 2: TGGTGGCTACGACGGGATT
B10: CAAAUCC (DNA:RNA)
RNA: B2 RNA with A25C, C26A, G28A, A29U, A31C
DNA 1: CAATCTGAATTCCGGTCTCCC
DNA 2: TGGTGGCTACGACGGGATT
B11: GAAGGAG (DNA:RNA)
RNA: B1 RNA with C25G, C27A, U28G, U31G
DNA 1: CAATCTGAATTCCGGTCTCCC
DNA 2: TGGTGGCTACGACGGGATT
B12: GGAUAGC (DNA:RNA)
RNA: B2 RNA with A25G, C26G, G28U, C30G, A31C
DNA 1: CAATCTGAATTCCGGTCTCCC
DNA 2: TGGTGGCTACGACGGGATT
B13: GUGCUGA (DNA:RNA)
RNA: B2 RNA with A25G, C26U, A27G, G28C, A29U, C30G
DNA 1: CAATCTGAATTCCGGTCTCCC
DNA 2: TGGTGGCTACGACGGGATT
B14: AUGAUCG (DNA:RNA)
RNA: B2 RNA with C26U, A27G, G28A, A29U, A31G
DNA 1: CAATCTGAATTCCGGTCTCCC
DNA 2: TGGTGGCTACGACGGGATT
B15: UAUUUGU (DNA:RNA)
RNA: B1 RNA with C25U, C27U, G29U, A30G
DNA 1: CAATCTGAATTCCGGTCTCCC
DNA 2: TGGTGGCTACGACGGGATT
B16: CAAAGCC (DNA:RNA)
RNA: B1 RNA with C27A, U28A, A30C, U31C
DNA 1: CAATCTGAATTCCGGTCTCCC
DNA 2: TGGTGGCTACGACGGGATT
B17: GGACGGA (DNA:RNA)
RNA: B2 RNA with A25G, C26G, G28C, A29G, C30G
DNA 1: CAATCTGAATTCCGGTCTCCC
DNA 2: TGGTGGCTACGACGGGATT
B18: GGACUCG (DNA:RNA)
RNA: B2 RNA with A25G, C26G, G28C, A29U, A31G
DNA 1: CAATCTGAATTCCGGTCTCCC
DNA 2: TGGTGGCTACGACGGGATT
B19: ACAUUGG (DNA:RNA)
RNA: B2 RNA with G28U, A29U, C30G, A31G
DNA 1: CAATCTGAATTCCGGTCTCCC
DNA 2: TGGTGGCTACGACGGGATT
B20: UCCGGAU (DNA:RNA)
RNA: B1 RNA with C25U, A26C, U28G
DNA 1: CAATCTGAATTCCGGTCTCCC
DNA 2: TGGTGGCTACGACGGGATT
B21: UGAUACA (DNA:RNA)
RNA: B2 RNA with A25U, C26G, G28U
DNA 1: CAATCTGAATTCCGGTCTCCC
DNA 2: TGGTGGCTACGACGGGATT
B22: GCAGCGU (DNA:RNA)
RNA: B2 RNA with A25G, A29C, C30G, A31U
DNA 1: CAATCTGAATTCCGGTCTCCC
DNA 2: TGGTGGCTACGACGGGATT
B23: CACCCUG (DNA:RNA)
RNA: B1 RNA with U28C, G29C, A30U, U31G
DNA 1: CAATCTGAATTCCGGTCTCCC
DNA 2: TGGTGGCTACGACGGGATT
B24: CACCUCG (DNA:RNA)
RNA: B1 RNA with U28C, G29U, A30C, U31G
DNA 1: CAATCTGAATTCCGGTCTCCC
DNA 2: TGGTGGCTACGACGGGATT
B25: CAGGCGG (DNA:RNA)
RNA: B1 RNA with C27G, U28G, G29C, A30G, U31G
DNA 1: CAATCTGAATTCCGGTCTCCC
DNA 2: TGGTGGCTACGACGGGATT
B26: ACUACAC (DNA:RNA)
RNA: B2 RNA with A27U, G28A, A29C, C30A, A31C
DNA 1: CAATCTGAATTCCGGTCTCCC
DNA 2: TGGTGGCTACGACGGGATT
B27: GCGCUAU (DNA:RNA)
RNA: B1 RNA with C25G, A26C, C27G, U28C, G29U
DNA 1: CAATCTGAATTCCGGTCTCCC
DNA 2: TGGTGGCTACGACGGGATT
B28: CAUAUCC (DNA:RNA)
RNA: B1 RNA with C27U, U28A, G29U, A30C, U31C
DNA 1: CAATCTGAATTCCGGTCTCCC
DNA 2: TGGTGGCTACGACGGGATT
B29: UGAGUUC (DNA:RNA)
RNA: B2 RNA with A25U, C26G, A29U, C30U, A31C
DNA 1: CAATCTGAATTCCGGTCTCCC
DNA 2: TGGTGGCTACGACGGGATT
B30: UACCGCC (DNA:RNA)
RNA: B1 RNA with C25U, U28C, A30C, U31C
DNA 1: CAATCTGAATTCCGGTCTCCC
DNA 2: TGGTGGCTACGACGGGATT
B31: CUAGAAC (DNA:RNA)
RNA: B2 RNA with A25C, C26U, C30A, A31C
DNA 1: CAATCTGAATTCCGGTCTCCC
DNA 2: TGGTGGCTACGACGGGATT

Molecular target: T1, RBFOX1 RRM RbFoxmut (Fox-RRM*)
Assay: EMSA; HiTS-Eq, 1 nM pool, 10 min; buffer printed only for the single-RNA assays: 10 mM Tris pH 7.5, 150 mM NaCl, 3.4 mM EDTA, 0.001% NP-40, 30 C
Conditions: tags: His6 N-terminal (pET28a); label: 5' 32P
How it was run: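 Purified RbFox RRM (wild type or mutant) was equilibrated for 10 min in 50 µL with 1 nM of a 5′-radiolabelled pool of RNA with 7 randomized nucleotides, its flanks annealed to DNA oligonucleotides, across increasing protein concentrations. Free RNA was separated by 8% native PAGE, excised, reverse-transcribed, PCR-barcoded and sequenced on an Illumina HiSeq 2500. Relative association constants came from read-count changes of each variant against the control reaction, normalised to the cognate motif.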

| Binder | binding signal |
| --- | --- |
| B1 | 0.0795 KA relative to UGCAUGU |
| B2 | 0.0669 KA relative to UGCAUGU |
| B3 | 0.08 KA relative to UGCAUGU |
| B4 | 0.114 KA relative to UGCAUGU |
| B5 | 0.116 KA relative to UGCAUGU |
| B6 | 0.192 KA relative to UGCAUGU |
| B7 | 0.114 KA relative to UGCAUGU |
| B8 | 0.132 KA relative to UGCAUGU |
| B9 | 0.0582 KA relative to UGCAUGU |
| B10 | 0.0732 KA relative to UGCAUGU |
| B11 | 0.092 KA relative to UGCAUGU |
| B12 | 0.111 KA relative to UGCAUGU |
| B13 | 0.122 KA relative to UGCAUGU |
| B14 | 0.157 KA relative to UGCAUGU |
| B15 | 0.101 KA relative to UGCAUGU |
| B16 | 0.0863 KA relative to UGCAUGU |

| Binder | binding signal |
| --- | --- |
| B17 | 0.0628 KA relative to UGCAUGU |
| B18 | 0.126 KA relative to UGCAUGU |
| B19 | 0.099 KA relative to UGCAUGU |
| B20 | 0.0634 KA relative to UGCAUGU |
| B21 | 0.0939 KA relative to UGCAUGU |
| B22 | 0.121 KA relative to UGCAUGU |
| B23 | 0.0925 KA relative to UGCAUGU |
| B24 | 0.126 KA relative to UGCAUGU |
| B25 | 0.107 KA relative to UGCAUGU |
| B26 | 0.0796 KA relative to UGCAUGU |
| B27 | 0.0973 KA relative to UGCAUGU |
| B28 | 0.0805 KA relative to UGCAUGU |
| B29 | 0.0467 KA relative to UGCAUGU |
| B30 | 0.124 KA relative to UGCAUGU |
| B31 | 0.0736 KA relative to UGCAUGU |
